pKd: −log10 of the molar value.
Target: T1, STING (Homo sapiens, UniProt Q86WV6)
T1 construct: gene STING1; hSTING-CTD
Test: SPR (Biacore T200, CM5 chip, steady-state […] fit); supported by competition in biotin pull-down
Format: binding

T1 sequence (Q86WV6 whole entry): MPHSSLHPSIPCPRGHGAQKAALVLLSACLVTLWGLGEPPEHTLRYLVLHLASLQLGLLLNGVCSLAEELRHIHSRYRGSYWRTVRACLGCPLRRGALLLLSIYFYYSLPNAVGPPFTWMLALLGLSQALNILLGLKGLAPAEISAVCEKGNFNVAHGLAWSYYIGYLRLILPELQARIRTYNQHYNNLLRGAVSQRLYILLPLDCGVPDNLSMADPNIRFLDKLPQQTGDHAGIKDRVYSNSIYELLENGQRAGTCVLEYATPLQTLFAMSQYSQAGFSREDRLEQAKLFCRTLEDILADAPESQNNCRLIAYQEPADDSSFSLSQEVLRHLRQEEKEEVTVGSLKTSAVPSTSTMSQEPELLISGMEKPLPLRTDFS

## C=C[C@]12CN(C)[C@@H]3[C@H]4CO[C@H](C[C@H]41)[C@]1(C(=O)N(OC)c4ccccc41)[C@@H]32 [GS, Gelsevirine]
  pKd: 4.56

Source: publication PMC10424845, “Gelsevirine is a novel STING-specific inhibitor and mitigates STING-related inflammation in sepsis” (Frontiers in Immunology, 2023)
